# From publication PMC4336329 (PLoS ONE, 2015)
# Hit rate of the full screen: of about 310,000 compounds, about 2,200 (0.71%) showed an effect of 50% or more. The effect is printed as a negative number. This is one part of the list.
# Molecular target: human ether-à-go-go-related gene (hERG) potassium channel (human, UniProt Q12809)
# Experiment: primary screen, population patch clamp on CHO cells stably expressing hERG
# Sequence of human ether-à-go-go-related gene (hERG) potassium channel (Q12809 whole entry, looked up): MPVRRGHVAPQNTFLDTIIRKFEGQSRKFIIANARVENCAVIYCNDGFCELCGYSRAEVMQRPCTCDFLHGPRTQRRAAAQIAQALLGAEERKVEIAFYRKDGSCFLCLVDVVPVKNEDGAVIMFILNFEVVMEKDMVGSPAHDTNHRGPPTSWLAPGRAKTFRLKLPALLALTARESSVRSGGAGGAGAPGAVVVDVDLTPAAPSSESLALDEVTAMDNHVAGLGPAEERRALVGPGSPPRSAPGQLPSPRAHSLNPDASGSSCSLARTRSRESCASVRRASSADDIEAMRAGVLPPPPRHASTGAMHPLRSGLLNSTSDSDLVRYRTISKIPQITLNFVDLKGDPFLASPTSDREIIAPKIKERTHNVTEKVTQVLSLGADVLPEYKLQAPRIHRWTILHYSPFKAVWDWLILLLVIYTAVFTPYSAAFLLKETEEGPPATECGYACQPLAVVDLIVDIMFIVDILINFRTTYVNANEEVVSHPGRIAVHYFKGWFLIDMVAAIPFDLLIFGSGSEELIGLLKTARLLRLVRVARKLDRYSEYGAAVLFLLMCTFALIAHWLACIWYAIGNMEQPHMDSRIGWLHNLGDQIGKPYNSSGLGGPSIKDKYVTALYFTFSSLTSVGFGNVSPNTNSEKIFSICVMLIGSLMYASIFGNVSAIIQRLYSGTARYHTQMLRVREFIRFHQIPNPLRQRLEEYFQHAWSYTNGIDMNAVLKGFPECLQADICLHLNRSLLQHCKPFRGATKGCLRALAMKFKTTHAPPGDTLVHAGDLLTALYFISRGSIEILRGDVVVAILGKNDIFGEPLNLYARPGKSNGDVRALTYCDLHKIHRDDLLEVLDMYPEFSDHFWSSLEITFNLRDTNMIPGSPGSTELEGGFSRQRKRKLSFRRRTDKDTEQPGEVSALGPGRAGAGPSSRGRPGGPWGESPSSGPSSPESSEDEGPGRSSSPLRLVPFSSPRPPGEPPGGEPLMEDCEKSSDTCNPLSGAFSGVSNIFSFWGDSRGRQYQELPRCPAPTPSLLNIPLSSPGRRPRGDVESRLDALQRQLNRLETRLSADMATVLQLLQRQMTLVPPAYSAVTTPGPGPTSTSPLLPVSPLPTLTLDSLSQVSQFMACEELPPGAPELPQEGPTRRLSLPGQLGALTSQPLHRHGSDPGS
row,SMILES,"hERG current change (%, negative = inhibition) at 1uM [%]"
1,N#C/C(=C\c1cccc([N+](=O)[O-])c1)C(=O)NCc1cccnc1,-9.73
2,CCc1cc[n+](C2=C([O-])c3ccccc3C(=O)/C2=N\S(=O)(=O)c2cccs2)cc1,7.52
3,CCSc1nc(=S)n(Cc2ccccc2)c(C)c1C(C)=O,9.28
4,CCCC(=O)OC(C(=O)Nc1cc(C(F)(F)F)ccc1Cl)c1ccccc1 (stereo not drawn),5.1
5,COc1ccc(-c2cc(C(=O)NCCCN3CCCC3=O)c3ccccc3n2)cc1OC,-33.2
6,CSc1ccccc1NC(=O)c1ccc(N2CC3CC(C2)c2cccc(=O)n2C3)c(NC(=O)c2ccncc2)c1 (stereo not drawn),18
7,COc1ccc(CCN2C(=O)CSC2=S)cc1OC,11.5
8,CCN1CCN(C(=O)CSc2cc(=O)n(CC)c3ccccc23)CC1,5.76
9,O=C(Nc1cccc(F)c1)c1ccc2ncsc2c1,13.9
10,Cc1cccn2cc(-c3ccc(F)cc3)nc12,-6.72
11,CC(C)c1ccc(NC(=O)c2cccnc2)cc1,10.4
12,O=C1C=C(c2cccs2)CC(c2cccs2)C1n1cnc([N+](=O)[O-])c1 (stereo not drawn),10.3
13,C/C(=N\NC(=O)CNc1ccccc1)c1ccccc1,-4.44
14,Cc1cc2nnc(SCC(=O)Nc3cccc(S(=O)(=O)N4CCOCC4)c3)n2c2ccccc12,11.6
15,Nc1ccccc1-c1nnn(CC(=O)Nc2ccc3c(c2)OCCO3)n1,14.9
16,CC(=O)N/C(=C\c1ccccc1)C(=O)OC(C)C(=O)NCc1ccccc1 (stereo not drawn),7.67
17,Oc1ccc(-c2cnc3ccccc3n2)cc1,8.78
18,Cc1ccc(OCCOc2cccc(Br)c2)c([N+](=O)[O-])n1,11.2
19,COc1ccc(OC)c(NC(=O)c2ccc(S(=O)(=O)N3CCOCC3)cc2)c1,14.8
20,COc1ccc2c(CC(=O)N[C@@H](Cc3ccccc3)C(=O)O)cc(=O)oc2c1C,4.26
21,CCOc1ccccc1C(c1c(O)nc(SC)[nH]c1=O)c1c(O)nc(SC)[nH]c1=O,3.85
22,COC(=O)c1cccc(NC(=O)CC2C(=O)NCCN2C(=O)Nc2cc(C)cc(C)c2)c1 (stereo not drawn),11.5
23,Cc1noc(C)c1S(=O)(=O)N1CCCC(C(=O)N2CCc3ccccc3C2)C1 (stereo not drawn),-5.05

row,SMILES,"hERG current change (%, negative = inhibition) at 1uM [%]"
1,Nc1nonc1-c1noc(-c2ccc(Br)o2)n1,0.272
2,Cc1ccccc1NC(=O)Cc1nc(COC(=O)c2cccnc2Cl)cs1,11.6
3,Oc1cccc(/C=N/NC(=S)Nc2cccnc2)c1O,8.14
4,COC1CCCN(C(=O)c2ccc3oc(Cc4ccc(Cl)cc4)nc3c2)C1 (stereo not drawn),7.73
5,CCC(=O)N1CCN(c2ccccc2NC(=S)NC(=O)c2ccco2)CC1,6.26
6,N/C(=N\OC(=O)c1ccc(Cl)cc1)c1ccc(Cl)cc1,9.91
7,O=C(NCC1CCCO1)c1cc2cc(F)ccc2[nH]1 (stereo not drawn),14.1
8,O=C(COC(=O)c1cnccn1)c1cccc([N+](=O)[O-])c1,13.8
9,O=C1C(Cc2ccccc2)NC(=S)N1c1ccccc1 (stereo not drawn),15
10,CCCCOc1ccc(N2CC(C(=O)NCc3ccco3)CC2=O)cc1 (stereo not drawn),6.47
11,Cc1cccc(NC(=O)CSc2nnnn2-c2ccc3c(c2)OCCO3)n1,-17.7
12,Cc1ccccc1OCCC(=O)Nc1ccc(N2CCOCC2)cc1N1CCOCC1,2.71
13,COc1nc(C)ccc1-c1noc(-c2ccccn2)n1,8.18
14,Cc1ccc(C2=NN(C(=O)c3ccccc3F)C(c3ccccc3F)C2)cc1 (stereo not drawn),14.3
15,Cc1[nH]c2ccccc2c1C(=O)CSc1ccccc1,-2.05
16,CCCCN(C(=O)c1ccco1)C1CCS(=O)(=O)C1 (stereo not drawn),2.3
17,CCc1ccc(NC2=CC(=O)CC(C)(C)C2)cc1,17
18,COC(=O)c1cc(NC(=O)C(C)c2ccc(CC(C)C)cc2)ccc1O (stereo not drawn),7.88
19,O=C(NCc1ccco1)c1nc2ncccn2n1,6.52
20,Cc1ccc(NC(=O)CCNC(=O)c2ccco2)cc1Cl,14.8
21,CC(C)(C)NC(=O)CSc1nc2ccc(NC(=O)CSc3nnc(N)s3)cc2s1,10
22,CN1CCCC(OC(=O)c2ccccc2F)C1.Cl (stereo not drawn),7.78
23,CC(C)Oc1ccc(S(=O)(=O)N2CCOCC2)cc1NC(=O)CN1C(=O)NC2(CCCC2)C1=O,2.5

row,SMILES,"hERG current change (%, negative = inhibition) at 1uM [%]"
1,CCOc1ccc(N2C(=O)c3cccnc3C2Nc2ccc(C)cc2)cc1 (stereo not drawn),10
2,COCc1nnc(NS(=O)(=O)c2c(C)cc(C)cc2C)s1,2.52
3,Cc1cc(C)c(NC(=O)Cn2c([N+](=O)[O-])cnc2C)c(C)c1,11.1
4,CC(=O)Nc1ccc(S(=O)(=O)n2cnc3ccccc32)cc1,8.45
5,O=C(C1=C[C@@H](c2ccc(C(F)(F)F)cc2)C[C@@H](OCCCCO)O1)N1CCN(Cc2ccc3c(c2)OCO3)CC1,-10
6,CC(=O)Nc1ccc(S(=O)(=O)Nc2nnc(CC(C)(C)C)s2)cc1,16.2
7,CC1=CC(C)(C)N2C(=O)C(=O)c3cc(OC(=O)c4ccco4)cc1c32,16.1
8,Cc1ccc(-n2nnc(-c3nccn3C)n2)cc1,6.56
9,COc1ccc(C(c2ccc(OC)cc2)C(Cl)(Cl)Cl)cc1,13.6
10,O=c1c2ccccc2nc(-c2ccco2)n1-c1ccncc1,2.71
11,Cc1cc(C)cc(NC(=O)CSCc2cc(=O)n3ccsc3n2)c1,11.2
12,COc1cc(C(=O)OC(C)C(=O)NC2CCCCC2C)c([N+](=O)[O-])cc1OC (stereo not drawn),-3.59
13,O=S(=O)(c1ccc(Cl)cc1)n1nnc2ccccc21,4.78
14,Nc1cc(S(=O)(=O)N2CCCCC2)ccc1N1CCCCC1,3.61
15,O=C(NCC1CCCCC1)c1ccc([N+](=O)[O-])cc1,8.06
16,CCCCc1cc(=O)oc2cc(OCC(=O)NCC3CCC(C(=O)O)CC3)ccc12 (stereo not drawn),15.7
17,COc1cccc2cc(C(=O)C3=C(O)C(=O)N(CCN4CCOCC4)C3c3ccc(C(C)(C)C)cc3)oc12 (stereo not drawn),35
18,O=C1CSC(c2cccnc2)N1CCc1ccccn1 (stereo not drawn),17.6
19,Cc1ccc(Nc2nc3ccccc3n3cnnc23)cc1C,11.4
20,O=C(NC1CCCCC1)C1CCC(CNS(=O)(=O)c2ccccc2)CC1 (stereo not drawn),16.5
21,Cc1ccc(NC(=O)NC2CCCCC2)cc1S(=O)(=O)N1CCOCC1,9.67
22,Cc1ccc(C(C)C)c(OCCCN2C(=O)NC(C)(C)C2=O)c1,-2.93
23,CCn1c(SCC(=O)N2CCC(C)CC2)nnc1-c1ccco1,13.1

row,SMILES,"hERG current change (%, negative = inhibition) at 1uM [%]"
1,CCCCn1c(=O)cc(N2CCOCC2)[nH]c1=O,8.58
2,Cc1ccc(NC(=O)C2OCCc3ccccc32)cc1Cl (stereo not drawn),19.5
3,Cc1cccc(OCC(=O)N(Cc2ccccc2)c2c(N)n(Cc3ccccc3)c(=O)[nH]c2=O)c1,6.53
4,N#Cc1ccc(C(=O)OCC(=O)Nc2cccnc2Cl)cc1,1.17
5,CCOC(=O)c1sc(NC(=O)c2ccc(OC)cc2)nc1C,15.9
6,O=C(CSc1nnc(Cc2ccccc2)o1)Nc1ccc(Br)cn1,15.7
7,COc1cc2[nH]c(=S)n(CCCN3CCOCC3)c(=O)c2cc1OC,7.58
8,O=C(NCC(=O)N(CC1CCCO1)C(C(=O)NC1CCCCC1)c1ccccc1)c1cccs1 (stereo not drawn),7.63
9,Cc1ccccc1C(=O)Nc1ccnn1C1CCN(CC2CC=CCC2)CC1 (stereo not drawn),-33.5
10,O=C(NC1CCCC1)C1CCC(=O)N1C1CCCCC1 (stereo not drawn),-8.1
11,CCN(CC)C(=O)CSc1ncnc2sc(-c3ccccc3)cc12,2.6
12,CCCn1c(=O)n(C)c(=O)c2c(SCC(=O)NCc3ccco3)nc(C3CC3)nc21,12.1
13,O=C(CSc1ccc(Cl)cc1)Nc1ccc(N2CCN(c3ccccc3)CC2)c(F)c1,11.7
14,CC(=O)OC1C(N2CCCCC2)c2c(ccc(/C=C/C(=O)N3CCCCC3)c2O)OC1(C)C (stereo not drawn),8.42
15,Cc1ccc(C)c(NC(=O)Cn2c([N+](=O)[O-])cnc2C)c1,19.9
16,CCOC(=O)NC(=O)CSc1nc2ccc(OCC)cc2[nH]1,10.4
17,O=C(NCCN1CCCC1)C1CCN(S(=O)(=O)N2CCC3(CC2)OCCO3)CC1,19.1
18,C/C(=N\Nc1cccc(C(=O)O)c1)c1ccc2c(c1)Nc1ccccc1S2,6.55
19,O=C(CN1C(=O)C2CCCCC2C1=O)OCC(=O)c1ccc(F)cc1 (stereo not drawn),13.9
20,COCC(=O)Nc1cccc(-c2ccc3nncn3n2)c1,15.1
21,Cc1nn(-c2ccc(Cl)cc2)c(=O)c2c(C)noc12,11.3
